The structures appear in SMILES notation. Structures can show the parent of a compound that is named as a salt.

The subject of the series is CYP2A6 and CYP2B6 mRNA in human astrocytes and HepaRG cells. To be noted: ERα silenced by siRNA.
In the case of `Cl.N[C@@]1(c2ccccc2Cl)CCC[C@@H](O)C1=O` [(2R,6R)-HNK], the “induction of CYP2A6 and CYP2B6 mRNA expression after ERα siRNA knockdown” value (“induction” below) is listed as “failed to induce”.

As for `CNC1(c2ccccc2Cl)CCCCC1=O` (stereo not drawn) [ketamine, Ketamine hydrochloride], the “induction” value is given as “lost”.

Consider `Cl.N[C@]1(c2ccccc2Cl)CCC[C@H](O)C1=O` [(2S,6S)-HNK], for which the “induction” value is recorded as “failed to induce”.

Values taken from paper PMC5960634 (Biochemical pharmacology, 2018).
